# Source: publication PMC4336329 (PLoS ONE, 2015)
# In all, about 310,000 compounds went through this assay and about 14,000 (4.5%) showed an effect of 50% or more. Effects have a minus sign here. The list shows a part of the results.
# Molecular target: human ether-à-go-go-related gene (hERG) potassium channel (human, UniProt Q12809)
# Assay: primary screen, population patch clamp on CHO cells stably expressing hERG
# 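Further: peak tail current of the secondary pulse compared with the same well before compound.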
# Sequence of human ether-à-go-go-related gene (hERG) potassium channel (Q12809 whole entry, looked up): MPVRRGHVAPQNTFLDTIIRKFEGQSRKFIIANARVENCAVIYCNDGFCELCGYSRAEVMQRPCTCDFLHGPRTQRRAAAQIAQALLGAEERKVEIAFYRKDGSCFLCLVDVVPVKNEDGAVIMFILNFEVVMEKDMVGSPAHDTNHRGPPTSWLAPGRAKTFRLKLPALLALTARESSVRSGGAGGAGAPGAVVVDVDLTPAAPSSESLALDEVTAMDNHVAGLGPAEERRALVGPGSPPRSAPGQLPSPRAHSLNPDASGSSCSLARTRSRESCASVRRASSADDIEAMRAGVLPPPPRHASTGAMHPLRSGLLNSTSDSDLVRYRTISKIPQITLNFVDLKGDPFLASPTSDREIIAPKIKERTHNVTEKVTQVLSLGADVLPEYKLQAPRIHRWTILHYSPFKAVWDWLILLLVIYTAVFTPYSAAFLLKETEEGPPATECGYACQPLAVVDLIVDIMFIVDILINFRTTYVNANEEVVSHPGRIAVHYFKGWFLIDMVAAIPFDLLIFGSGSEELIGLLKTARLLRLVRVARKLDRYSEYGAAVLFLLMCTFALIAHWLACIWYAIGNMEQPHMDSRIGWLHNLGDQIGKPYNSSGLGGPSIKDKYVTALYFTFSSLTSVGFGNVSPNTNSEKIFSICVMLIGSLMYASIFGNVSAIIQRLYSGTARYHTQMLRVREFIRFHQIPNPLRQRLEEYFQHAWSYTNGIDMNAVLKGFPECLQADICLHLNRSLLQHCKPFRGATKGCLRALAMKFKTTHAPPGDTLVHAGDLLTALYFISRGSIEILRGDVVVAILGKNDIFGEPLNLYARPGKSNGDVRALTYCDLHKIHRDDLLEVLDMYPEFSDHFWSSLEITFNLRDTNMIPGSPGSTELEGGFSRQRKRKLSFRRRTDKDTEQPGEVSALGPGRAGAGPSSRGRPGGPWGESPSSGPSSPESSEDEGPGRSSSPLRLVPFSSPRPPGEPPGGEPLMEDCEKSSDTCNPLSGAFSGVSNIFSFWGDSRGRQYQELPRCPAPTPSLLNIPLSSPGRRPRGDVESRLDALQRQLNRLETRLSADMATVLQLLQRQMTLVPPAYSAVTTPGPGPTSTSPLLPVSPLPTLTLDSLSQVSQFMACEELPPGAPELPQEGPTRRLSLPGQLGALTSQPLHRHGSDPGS
row,SMILES,"hERG current change (%, negative = inhibition) at 10uM [%]"
1,CC(C)CN(C(=O)CCCSc1nc2ccccc2[nH]1)c1c(N)n(Cc2ccccc2)c(=O)[nH]c1=O,-43.2
2,CC(C)c1ccc(N2C(=O)CC(NNC(=O)c3cccnc3)C2=O)cc1 (stereo not drawn),17
3,Cn1c(=O)c2c(nc(CN3CCN(c4ccc(F)cc4)CC3)n2Cc2ccccc2F)n(C)c1=O,-6.93
4,O=C(Nc1ccccc1F)OC1CN2CCC1CC2 (stereo not drawn),6.21
5,COc1ccc2c(c1)CCc1cn[nH]c1-2,18.7
6,O=C(NCc1ccco1)C1CCN(c2nc3ccccc3n2Cc2ccccc2F)CC1,-66.2
7,O=C(c1cc(-c2cccc(Cl)c2)on1)N1CCCC1,-5.13
8,Cc1cccc(C(=O)NCC(=O)OCC(=O)N2CC3(C)CC2CC(C)(C)C3)c1 (stereo not drawn),-26
9,C=CCn1c(COc2ccccc2)nnc1SCC(=O)C(C)(C)C,-13.6
10,CN(C)S(=O)(=O)N1CCCC(C(=O)c2ccc(C(F)(F)F)cc2)C1 (stereo not drawn),16
11,Cl.O=C(NCCOC(=O)c1ccccc1C(=O)OCCNC(=O)c1cccnc1)c1cccnc1,6.71
12,Cc1nn(C2CCCO2)c(=O)nc1N (stereo not drawn),19.1
13,COc1ccc(CCNC(=O)CSc2nc3ccccc3o2)cc1OC,13.9
14,CN1CCC(N(C)C(=O)c2ccccc2F)CC1.Cl,33.5
15,O=C(O)c1cc(NC(=O)c2ccccc2F)cc(NC(=O)c2ccccc2F)c1,3.94
16,FC(F)(F)c1cccc(-n2cccc2/C=N/n2cnnc2)c1,-30
17,CN1CCN(C(=O)Nc2ccc([N+](=O)[O-])cc2)CC1,-23.8
18,O=C(Nc1ccccc1C(=O)Nc1ccc(Br)cn1)c1cccc([N+](=O)[O-])c1,16.6
19,CC(=O)Nc1ccc(S(=O)(=O)Nc2c(NC3CCCCC3)c3ccccc3oc2=O)cc1,7.19
20,COc1cc(CN2CCN(c3ccccc3F)CC2)cc(OC)c1O,-26.4
21,CCc1ccc(S(=O)(=O)NCCc2cn3ccc(C)cc3n2)s1,-54.2
22,O=C(CN1CCN(Cc2ccc(Cl)cc2)CC1)N/N=C/c1c[nH]c2ccccc12,-52.9
23,C/C=C(\C)C(=O)NCCN1C2=NC[C@H](C(C)C)N2C[C@@H]1Cc1ccc(OC)cc1,-86.6

row,SMILES,"hERG current change (%, negative = inhibition) at 10uM [%]"
1,CC1(C)N2CC3([N+](=O)[O-])CN1CC([N+](=O)[O-])(C2)C3,11.1
2,S=C(Nc1ccccc1Cl)N1CCOCC1,17.1
3,N#Cc1c(NC(=O)CSc2nc(-c3ccccc3)cc(C(F)(F)F)n2)sc2c1CCC2,16.7
4,Cc1c(C(=O)Nc2c(F)cccc2F)sc2ncn(CC(=O)N3CCCCC3)c(=O)c12,3.98
5,COc1ccc(NC(=S)Nc2ccccc2Cl)cn1,-3.12
6,CCn1c(SCCC#N)nnc1-c1ccncc1,1.69
7,O=C(NC1CC1)c1ccc2c3c(cccc13)CC2,-2.52
8,COc1cc(C2Nc3ccccc3C(=O)N2c2ccc3c(c2)OCCO3)ccc1OCC(C)C (stereo not drawn),6.52
9,Cc1ccc2c(c1)/C(=C/c1ccccc1F)C(=O)N2,17.7
10,CCOc1ccc(CN(C)CC(O)COC(c2ccc(OC)cc2)c2ccc(OC)cc2)cc1 (stereo not drawn),-77.4
11,CCCSc1nsc(SCCC)c1C(N)=O,-5.26
12,CCC(C)Sc1nnc(CSc2nc(C)cc(C)n2)n1C (stereo not drawn),0.765
13,COc1ccc(OC)c(-n2nnnc2SCC(=O)Nc2ccc(C(=O)N3CCCCC3)cc2)c1,-11.2
14,O=C(CSc1nc2ccccc2c(=O)n1NC(=O)Cc1ccccc1)NCc1ccco1,-2.86
15,CC(=O)c1cccc(NC(=S)NCCCCc2ccccc2)c1,-2.16
16,Cc1cc(C(=O)N2CCCC(N3CCN(c4ccccc4C)CC3)C2)nc(C)n1 (stereo not drawn),4.27
17,O=C(NCc1ccco1)c1cc2n(n1)C(C(F)(F)F)CC(c1ccc(Cl)c(Cl)c1)N2 (stereo not drawn),-17.2
18,CN1/C(=C\C(=O)COC(=O)CN2C(=O)C3CC=CCC3C2=O)C(C)(C)c2ccccc21 (stereo not drawn),-19.7
19,CCC(C)N(C(=O)COc1ccc(Cl)c2cccnc12)C1CCS(=O)(=O)C1 (stereo not drawn),-4.6
20,COc1ccccc1NC(=S)NCCc1ccc(S(N)(=O)=O)cc1,9.55
21,CCc1ccc(CCC(=O)Nc2ccc(C)cc2C)o1,-1.9
22,COc1ccccc1C(=O)NCc1ccco1,9.61
